{"source": "the RNAGym collection of RNA variant scans (doi:10.7554/elife.90254)", "parents": {"B1": {"name": "OR4K15 (parent)", "chain": "GUUAACGGUCAUAGGCCAUGGAAACUAGGAGCACCAUUUCGCUGCCAGUGAAGAAAUGAACAAAGAAAAUCUGGGCCAGGCAGGCAUCAAAAGAAAUAGUCUUGCGCUCAACCAGAAAGUCUGUAAUCAUUUUAAGGGUA"}}, "note": "Read counts are not given, so values of variants with three or more changes are uncertain.", "data": [{"variants_of": "B1", "experiment": "self-cleavage, relative activity (ratio to wild type); higher = more cleavage; in vitro, sequencing; the parent is a self-cleaving ribozyme", "values": [{"variant": "A24U U43A A59G U133C", "self-cleavage": 0.6}, {"variant": "A24G U39C A60G A96G", "self-cleavage": 1.67}, {"variant": "U26A U39C A78U A89U A94C A96U U127C", "self-cleavage": 0.04}, {"variant": "A24G A82G A95G", "self-cleavage": 0.31}, {"variant": "U26C A30G A114G", "self-cleavage": 0.8}, {"variant": "A24G A30C U122A", "self-cleavage": 1.1}, {"variant": "A24G U39C A90G U100C A114G U131C", "self-cleavage": 0.74}, {"variant": "U26C A51G A78U", "self-cleavage": 0.3}, {"variant": "U26A U39C U102C U108C", "self-cleavage": 0}, {"variant": "A24U A30G A96G", "self-cleavage": 1.78}, {"variant": "A24G U39C U57C", "self-cleavage": 0.97}, {"variant": "A24G A54G A69G U72C", "self-cleavage": 0.16}, {"variant": "A24G U72A A78G C113U", "self-cleavage": 0.03}, {"variant": "U26A A27G U120A U131C G137A", "self-cleavage": 1.41}, {"variant": "A24G A64G U120C", "self-cleavage": 0.71}, {"variant": "A23U A36G A47G", "self-cleavage": 1.94}, {"variant": "A23U U49C A60G", "self-cleavage": 1.03}, {"variant": "A24G A64U G74U A129G U132C", "self-cleavage": 0.13}, {"variant": "A24G U72A A95C", "self-cleavage": 0.1}, {"variant": "U26C A27G A78G", "self-cleavage": 0.39}, {"variant": "A24G U39C U100C", "self-cleavage": 1.22}, {"variant": "A23U A68G U70C G137U", "self-cleavage": 0.78}, {"variant": "A24G U103C A129U", "self-cleavage": 0.77}, {"variant": "A24G A27G A82G", "self-cleavage": 0.37}, {"variant": "A24G A33U A135G", "self-cleavage": 1.25}, {"variant": "A24U A54U A67G A82U U103A", "self-cleavage": 0.26}, {"variant": "A24G A30G A86G A98U", "self-cleavage": 0.9}, {"variant": "A24G U37C U131A", "self-cleavage": 1.37}, {"variant": "A24G A59G A62G A94G G137U", "self-cleavage": 1.18}, {"variant": "A24G U38C U100A", "self-cleavage": 1.13}, {"variant": "A24G U39A A95G", "self-cleavage": 2.19}, {"variant": "A24G U38C A60U", "self-cleavage": 1.57}, {"variant": "A24G U100C U127C", "self-cleavage": 1.72}, {"variant": "A24C A27U A92U", "self-cleavage": 2.37}, {"variant": "A24U U38C U127C U133C", "self-cleavage": 1.99}, {"variant": "A24U A30G A62G A94G U124C", "self-cleavage": 0.77}, {"variant": "C25U A114C U131C", "self-cleavage": 0.02}, {"variant": "A24U U38C A86G U100C", "self-cleavage": 1.7}, {"variant": "U26C A51G A82G", "self-cleavage": 0.86}, {"variant": "A24C U38C U43A A67C A95G", "self-cleavage": 1.86}, {"variant": "A24G A33G A36G U70A", "self-cleavage": 0.95}, {"variant": "A24G A52U A55G A60G A67U U87A A89C A126G", "self-cleavage": 0.76}, {"variant": "A24G U39A A52G A117G", "self-cleavage": 1.24}, {"variant": "U26A U39C A96G A140C", "self-cleavage": 1.64}, {"variant": "U26A U37C A92G", "self-cleavage": 1.63}, {"variant": "A24G A60C A78G G106A", "self-cleavage": 0.02}, {"variant": "U26C A51U A114U", "self-cleavage": 0.09}, {"variant": "U26C A55G A92G", "self-cleavage": 0.94}, {"variant": "A24G G48U A86G", "self-cleavage": 0.61}, {"variant": "A24C A51G A67G A91G", "self-cleavage": 0.89}, {"variant": "A23U U26C A60G U103C", "self-cleavage": 0.93}, {"variant": "A24G A54G A64U A94G", "self-cleavage": 1.49}, {"variant": "A24G A56G A66G A111U", "self-cleavage": 0.11}, {"variant": "A24G U43C A59C A64G U122G", "self-cleavage": 0.94}, {"variant": "U26A A47G A64G A69G C81U U103C", "self-cleavage": 0.22}, {"variant": "U26C A86G A91U A116U U131A", "self-cleavage": 0.08}, {"variant": "A23U U43C A89C U108C", "self-cleavage": 0.03}, {"variant": "A24U A47G A78U A96G", "self-cleavage": 0.27}, {"variant": "A24C U43C G84A", "self-cleavage": 1.48}, {"variant": "A24G U37C U43A A47G U72A A95C", "self-cleavage": 0.19}, {"variant": "A24G U38C U49A U108C", "self-cleavage": 0.03}, {"variant": "U26C A91U A129G", "self-cleavage": 1.16}, {"variant": "A24G G74A A126G", "self-cleavage": 0.08}, {"variant": "A24G A69U U122C G137A", "self-cleavage": 1.13}, {"variant": "U26C A52U A66U U72A U102A A118G", "self-cleavage": 0.02}, {"variant": "A24G A118G U130C", "self-cleavage": 0.24}, {"variant": "A24U A30U G58A A59G A82G", "self-cleavage": 0.73}, {"variant": "U26A U39C A54U A89U A116U", "self-cleavage": 0.26}, {"variant": "A24G G44U A82G", "self-cleavage": 0.74}, {"variant": "A24G A69G A98G", "self-cleavage": 0.5}, {"variant": "A24G A56G U72A U103C A116G U127A", "self-cleavage": 0.04}, {"variant": "A24G C32U A66G A82U U100C A111U A118G", "self-cleavage": 0.02}, {"variant": "A24G U26A A95G U108A", "self-cleavage": 0.09}, {"variant": "A24G A33U U57C A59G U130C", "self-cleavage": 0.92}, {"variant": "U26A A91G A114G", "self-cleavage": 0.28}, {"variant": "A24G A54G A64U U102C", "self-cleavage": 2.12}, {"variant": "A24G A33G A51G A60G U103C", "self-cleavage": 0.24}, {"variant": "U26C A27G U49C A59G C112U", "self-cleavage": 0.04}, {"variant": "A24G A91C U120C A140U", "self-cleavage": 0.35}, {"variant": "A23U A69U A82G", "self-cleavage": 0.36}, {"variant": "A24G A36C U108C", "self-cleavage": 0.05}, {"variant": "A23U A82G A126G", "self-cleavage": 0.43}, {"variant": "A24G A54G U57A A86G A92G U130C", "self-cleavage": 0.31}, {"variant": "A23U A94G A129G U132C", "self-cleavage": 1}]}]}
